Measured values: the supplement of paper PMC12217912
This is one part of the list. The full chains were built here from the parent and the listed change. Inactive controls read about 0.05.

B1: TEV protease; numbered along this chain (parent)
chain: MGESLFKGPRDYNPISSSICHLTNESDGHTTSLYGIGFGPFIITNKHLFRRNNGTLVVQSLHGVFKVKDTTTLQQHLVDGRDMIIIRMPKDFPPFPQKLKFREPQREERICLVTTNFQTKSMSSMVSDTSCTFPSGDGIFWKHWIQTKDGQCGSPLVSTRDGFIVGIHSASNFTNTNNYFTSVPKNFMELLTNQEAQQWVSGWRLNADSVLWGGHKVFMVKPEEPFQPVKEATQL

Variants of: B1
Assay: raw area under fraction-flipped curve 0-4 h after induction (AUC4h, not background-subtracted), DNA-recorder readout of cleavage of the substrate (dimensionless); higher = more cleavage of the substrate by the protease variant
Conditions: temperature: 34 °C; time window: 0-4 h after rhamnose induction
Procedure: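 In vivo DNA recorder in E. coli TOP10(DE3) ΔrhaA at 34 °C. Each TEVp single-site mutant (parent TEVp 0) is paired with a single-site variant of the 7-mer TEVs (canonical ENLYFQ|S). The substrate sits between flexible linkers in a Bxb1-sfGFP-TEVs-SsrA fusion, so cleavage stabilises Bxb1 and speeds flipping of a recombination array, read by NGS. The value is the raw area under the fraction-flipped curve over 0-4 h after rhamnose induction (AUC4h), with ≥20 reads per time point. It is not background-subtracted; inactive controls average about 0.047.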
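Further: Bxb1 expression induced with 0.2% (w/v) L-rhamnose at OD600 near 0.5, cultures sampled hourly, flipped fraction per protease–substrate barcode pair counted by paired-end Illumina sequencing.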

Variant | area with substrate ENAYFQS | area with substrate ENCYFQS | area with substrate ENDYFQS | area with substrate ENEYFQS | area with substrate ENFYFQS | area with substrate ENGYFQS | area with substrate ENHYFQS | area with substrate ENIYFQS | area with substrate ENMYFQS | area with substrate ENNYFQS | area with substrate ENPYFQS | area with substrate ENQYFQS | area with substrate ENRYFQS | area with substrate ENSYFQS | area with substrate ENWYFQS | area with substrate ENVYFQS | area with substrate ENKYFQS | area with substrate ENTYFQS | area with substrate ENYYFQS
N116E | 0.0629 | 0.0662 | 0.051 | 0.0647 | 0.0524 | 0.0617 | 0.0547 | 0.0845 | 0.0581 | 0.0437 | 0.0687 | 0.0484 | 0.0566 | 0.0466 | 0.0061 | – | – | – | –
S124E | 0.0613 | – | 0.0625 | – | – | 0.0638 | – | – | 0.0905 | 0.0659 | 0.0514 | 0.0465 | – | 0.0536 | – | 0.0556 | – | – | –
N45K | 0.0539 | 0.0537 | 0.0722 | 0.0537 | – | 0.0482 | – | 0.0579 | – | 0.0695 | 0.057 | 0.0504 | – | 0.0668 | 0.041 | 0.0583 | 0.0598 | 0.0627 | 0.0584
R102Q | 0.0497 | 0.0708 | 0.0514 | 0.0411 | – | 0.0453 | 0.0384 | – | 0.0559 | – | 0.0486 | 0.0488 | 0.051 | 0.05 | – | – | 0.0512 | – | –
R102W | 0.0479 | 0.0397 | 0.0569 | 0.0565 | – | 0.0608 | – | – | 0.0286 | – | 0.0412 | 0.0475 | 0.0431 | 0.0424 | 0.0524 | 0.0505 | 0.0595 | – | 0.0475
I84C | 0.144 | 0.0674 | 0.0787 | 0.0656 | 0.0507 | 0.0721 | 0.0663 | – | 0.101 | – | 0.0606 | 0.0474 | 0.0537 | – | – | – | – | 0.0566 | –
R10N | 0.0849 | – | 0.0564 | 0.063 | 0.0724 | – | 0.0614 | 0.0991 | – | 0.0736 | 0.0689 | 0.0667 | 0.0473 | 0.0668 | – | 0.0692 | 0.0795 | 0.0682 | 0.0608
S135Y | 0.0758 | 0.0624 | 0.0547 | 0.0494 | 0.0554 | 0.0798 | 0.0528 | – | 0.0594 | 0.114 | 0.0499 | 0.0624 | 0.0642 | 0.0464 | – | 0.0589 | 0.0529 | 0.075 | –
K185I | 0.0543 | 0.0668 | 0.055 | – | – | 0.0737 | 0.0559 | 0.109 | – | – | 0.056 | 0.058 | 0.0607 | 0.0692 | – | – | – | – | 0.0677
P9W | 0.0744 | – | 0.0638 | – | 0.0631 | – | 0.0664 | 0.197 | 0.0623 | 0.0461 | 0.0499 | – | – | 0.0614 | – | 0.0742 | 0.0619 | 0.0652 | –
R204W | 0.049 | 0.0625 | 0.0712 | 0.0703 | 0.0586 | – | 0.0592 | – | 0.0925 | 0.0579 | – | 0.0652 | – | 0.0596 | – | 0.0691 | 0.0607 | 0.0725 | 0.0677
D69R | 0.0547 | 0.0898 | 0.0457 | 0.0481 | – | 0.0477 | – | 0.0285 | – | 0.0565 | 0.059 | 0.0574 | – | 0.0549 | 0.0312 | 0.0612 | 0.0629 | – | 0.053
N175Y | 0.0514 | 0.0583 | – | 0.048 | – | 0.0647 | 0.058 | – | – | 0.0601 | – | 0.0583 | 0.0719 | 0.0615 | – | 0.052 | – | 0.0587 | –
